# Data: paper PMC4336329 (PLoS ONE, 2015)
# About 2,200 (0.71%) of roughly 310,000 compounds showed an effect of 50% or more. Effects have a minus sign here. Some of the results follow.
# Target: human ether-à-go-go-related gene (hERG) potassium channel (human, UniProt Q12809)
# Test: primary screen, population patch clamp on CHO cells stably expressing hERG
# Chain of human ether-à-go-go-related gene (hERG) potassium channel (Q12809 whole entry, looked up): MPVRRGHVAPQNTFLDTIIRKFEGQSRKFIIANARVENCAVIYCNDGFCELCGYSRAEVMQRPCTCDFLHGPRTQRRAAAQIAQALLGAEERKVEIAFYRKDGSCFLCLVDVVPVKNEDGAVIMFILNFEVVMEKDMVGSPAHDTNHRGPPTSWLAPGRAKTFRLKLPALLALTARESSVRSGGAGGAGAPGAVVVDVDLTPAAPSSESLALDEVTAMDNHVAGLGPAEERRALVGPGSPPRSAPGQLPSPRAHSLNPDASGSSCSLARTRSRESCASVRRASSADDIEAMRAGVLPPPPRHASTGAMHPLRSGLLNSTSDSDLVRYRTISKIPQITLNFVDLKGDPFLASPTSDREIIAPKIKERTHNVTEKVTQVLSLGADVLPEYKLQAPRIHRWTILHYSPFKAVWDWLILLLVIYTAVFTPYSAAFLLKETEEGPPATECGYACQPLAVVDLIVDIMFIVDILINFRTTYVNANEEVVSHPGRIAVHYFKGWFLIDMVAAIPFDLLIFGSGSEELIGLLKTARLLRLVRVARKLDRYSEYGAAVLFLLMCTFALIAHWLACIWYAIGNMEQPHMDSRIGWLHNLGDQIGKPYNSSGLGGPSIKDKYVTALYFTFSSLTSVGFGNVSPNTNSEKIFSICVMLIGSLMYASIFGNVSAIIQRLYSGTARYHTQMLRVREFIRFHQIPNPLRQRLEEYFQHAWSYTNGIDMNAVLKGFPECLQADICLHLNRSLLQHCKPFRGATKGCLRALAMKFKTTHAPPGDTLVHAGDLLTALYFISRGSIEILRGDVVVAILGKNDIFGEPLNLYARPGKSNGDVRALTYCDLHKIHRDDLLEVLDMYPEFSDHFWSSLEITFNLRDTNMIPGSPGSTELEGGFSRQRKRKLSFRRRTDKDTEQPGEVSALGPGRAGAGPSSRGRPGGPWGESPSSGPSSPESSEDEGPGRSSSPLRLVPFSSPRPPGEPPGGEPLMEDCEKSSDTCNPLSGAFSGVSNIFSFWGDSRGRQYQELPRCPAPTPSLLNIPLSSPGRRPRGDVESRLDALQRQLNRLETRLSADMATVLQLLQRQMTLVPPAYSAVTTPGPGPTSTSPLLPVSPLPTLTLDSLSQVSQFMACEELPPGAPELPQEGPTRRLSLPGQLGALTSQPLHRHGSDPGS
row,Compound,"hERG current change (%, negative = inhibition) at 1uM"
1,O=C(Cc1cccs1)Nc1cc(S(=O)(=O)N2CCCCC2)ccc1Cl,6.42%
2,O=C(Cc1ccsc1)N1CCN(S(=O)(=O)c2cc(C(F)(F)F)cc(C(F)(F)F)c2)CC1,2.75%
3,O=C(Cc1cn2ccsc2n1)Nc1nc2c(s1)CCCC2,5.23%
4,C[C@H](NC(=O)c1nc[nH]c1C(=O)NC(c1ccccc1)c1ccccc1)C(=O)OC(C)(C)C,7.05%
5,CCCCCNCc1cccn1C.Cl,4.32%
6,CCn1c(=O)c(C(=O)NCCc2ccc(Cl)cc2)c(O)c2ccccc21,9.69%
7,COc1ccc(Nc2nc(-c3ccccc3)nc3ccccc23)c(OC)c1,-0.879%
8,CCCS(=O)(=O)N1CCC(C(=O)NCCN2CCC(Cc3ccccc3)CC2)CC1,-19.5%
9,O=C(CSc1nnc(CNC(=O)c2c(F)cccc2F)o1)c1ccccc1,14%
10,O=C(NCCN1CCN(C(=O)c2cccc([N+](=O)[O-])c2)CC1)C(=O)NCc1ccc(Cl)cc1,0.645%
11,Cc1ccc(C(=O)c2ccccc2C(=O)OCC(=O)NCCc2ccccc2)cc1,4.27%
12,Cn1nc(-c2ccccc2)c(C(=O)Nc2ccc(C(F)(F)F)cc2)c1Cl,5.65%
13,C=CCOc1c(Br)cc(C2NC(=O)NC(C)=C2C(C)=O)cc1OCC (centres unmarked),18.3%
14,Cc1ccc(-c2noc(CCC(=O)N3CCCC3)n2)cc1,3.74%
15,CCC(C)(C)NC(=O)CN(Cc1ccccc1)C(=O)CCC(=O)Nc1nccs1,2.68%
16,CC(C)CCNC(=O)c1onc(CSc2ccccc2)c1C(=O)NCCC(C)C,9.9%
17,CCc1ccc(OCC(=O)O/N=C(\N)c2ccncc2)c(Br)c1,10.5%
18,Cn1c(=O)c(C(=O)Nc2ncccn2)c(O)c2ccccc21,16.4%
19,Cc1ccc(Oc2ccc(OCC(=O)OC3CCS(=O)(=O)C3)cc2)cc1 (centres unmarked),12.7%
20,Cl.O=C(OCCN1CCCCC1)c1ccccc1Cl,9.06%
21,CCCCOc1ccc(CCN)cc1Cl.Cl,-1.14%
22,CNC(=O)COC(=O)c1ccc([N+](=O)[O-])cc1Cl,8.2%
23,Cc1cc(C)[n+](C2C3CC4CC(C3)CC2C4)o1.[O-][Cl+3]([O-])([O-])[O-] (centres unmarked),15.5%

row,Compound,"hERG current change (%, negative = inhibition) at 1uM"
1,O=C(NNC(=S)NCc1ccccc1)c1ccc(OC(F)F)cc1,6.29%
2,COc1cc(/C=N/NC(=O)CNC(=O)c2ccccc2)ccc1OC(=O)c1cccs1,9.49%
3,CCc1ccc(C(=O)Nc2ccc(OC)c(S(=O)(=O)N3CCCCC3)c2)cc1,8.61%
4,COc1ccc(NC(=O)NNC(=O)c2cc(C3CC3)nc3ccccc23)c(OC)c1,11%
5,CCc1ccc(C(C(=O)NC2CCCC2)N(Cc2cccnc2)C(=O)c2csnn2)cc1 (centres unmarked),2.84%
6,S=C(NCc1ccco1)N/N=C/c1ccncc1,9.3%
7,CCOc1ccc(CCNC(=O)/C=C/c2ccco2)cc1OCC,-170%
8,O=C(O)c1ccc(-c2noc(-c3ccccc3C(F)(F)F)n2)cc1,18.6%
9,CCCCC12CNCC(C)(CNC1)C2=O,9.47%
10,COC(CNS(=O)(=O)c1cccc2nonc12)OC,13.7%
11,COc1ccc(Cl)cc1NS(=O)(=O)c1ccc(OC)c(OC)c1,7.09%
12,C=CCN(C(=O)c1csnn1)C(C(=O)NC1CCCC1)c1c(F)cccc1Cl (centres unmarked),15.7%
13,COc1ccc(Cc2cc(-c3ccc(F)cc3)n[nH]c2=O)cc1,13.2%
14,COCCn1c(SCC(N)=O)nnc1-c1c[nH]c2ccccc12,7.03%
15,CN(C(=O)c1ccc(NC(=O)Cc2ccc(NC(=O)C3CCCN(C(=O)C4CC4)C3)cc2)cc1)C1CC1 (centres unmarked),8.71%
16,CSc1oc(-c2cccs2)nc1S(=O)(=O)c1ccccc1,4.25%
17,Cn1c(=O)c(C(=S)NC(=O)C2CC2)c(N)n(Cc2ccccc2)c1=O,16.4%
18,Cc1cccn2c(=O)c(C=NCc3ccccc3)c(NCCO)nc12,4.27%
19,CC(CN1CCOCC1)OC(=O)/C=C/c1ccccc1.Cl (centres unmarked),14.1%
20,COC(=O)c1cccc(COC(=O)c2cccnc2SC)c1,-1.25%
21,O=C(c1ccc(Cl)nc1)N1CCN(S(=O)(=O)c2ccc3c(c2)OCCO3)CC1,7.17%
22,CCCOc1ccc(-c2nn(-c3ccccc3)cc2/C=C2\SC(N)=NC2=O)cc1,0.968%
23,COc1ccc(NC(=O)CN(C)C2CCCCC2)c([N+](=O)[O-])c1,7.35%

row,Compound,"hERG current change (%, negative = inhibition) at 1uM"
1,COc1cccc(OCC(O)CN2CCN(c3ncccn3)CC2)c1.Cl (centres unmarked),3.06%
2,Cc1cc(C(=O)NNS(=O)(=O)c2ccccc2C(F)(F)F)nn1C(C)(C)C,9.52%
3,CCOc1ccc(NC(=O)C2CCCN(S(=O)(=O)c3c(C)nn(C)c3C)C2)cc1 (centres unmarked),4.3%
4,O=C(CN1N=C(c2ccccc2)CCC1=O)NCc1ccccc1,6.79%
5,COc1ccc(CC(C)Nc2cccc(F)c2)cc1 (centres unmarked),17.7%
6,COc1ccc2c(C)cc(SCC#N)nc2c1,11.8%
7,Cn1c(C(=O)O)c(CC(=O)NCc2cccnc2)c2ccccc21,7.96%
8,Cc1ncc([N+](=O)[O-])n1Cc1cccc2ccccc12,8.9%
9,CC1(C)Cc2c(sc(NC(=O)C(=O)N3CCCCC3)c2C(=O)O)CO1,10.7%
10,CCOC(=O)c1c(NC(=O)c2ccccc2)sc2c(O)c(CN(CC)CC)ccc12.Cl,-5.27%
11,NC(=O)CCC(C(=O)O)N1C(=O)c2ccc(O)cc2C1=O (centres unmarked),9.53%
12,O=C(NC(=O)c1ccccc1O)c1ccc(C(F)(F)F)cc1,16.5%
13,C=CCc1c(C)nc(-c2ccccc2)nc1Nc1ccccc1O,3.7%
14,C=CCn1c(SCc2ccccc2)nc2c1c(=O)[nH]c(=O)n2C,-9.19%
15,COC(=O)C(=C/C(C)=C/c1cccs1)C(=O)OC,10.7%
16,CN1C(=O)/C(=C/c2ccc(C(F)(F)F)cc2)Sc2ccc(C(=O)N3CCN(c4ccccn4)CC3)cc21,9.9%
17,CCN1C(=O)c2ccccc2S(=O)c2ccc(C(=O)NCCN(CC(C)C)CC(C)C)cc21 (centres unmarked),8.48%
18,CC(C)(CNC(=O)c1ccc(Cl)c(S(=O)(=O)N2CCc3ccccc3C2)c1)N1CCOCC1,-9.68%
19,CC1(C)CC(=O)C=C(N2CCNCC2)C1,14%
20,CCOc1ccc(N(CC(=O)NCc2cccc(OC)c2)S(=O)(=O)c2c(C)noc2C)cc1,8.09%
21,CCOC(=O)c1ccccc1NC(=O)c1cccnc1,-3.61%
22,O=C(NCc1ccc2c(c1)OCO2)c1ccc(S(=O)(=O)C(F)F)cc1,-0.408%
23,Cc1ccc(NS(=O)(=O)c2ccc(OCC(N)=O)cc2)cc1,10.3%

row,Compound,"hERG current change (%, negative = inhibition) at 1uM"
1,CC(=O)N1CCc2cc(S(=O)(=O)CCC(=O)NCc3cccs3)ccc21,8.45%
2,Cc1cccc(NC(=O)c2cn(-c3ccccc3)nc2-c2ccccc2)c1,15%
3,CCN(CC)S(=O)(=O)c1ccc(NC=C(C#N)C#N)cc1,10.8%
4,Cn1c(=O)c(C(=O)N2CCc3ccccc32)cc2cccnc21,4.08%
5,C=CCc1c(C)nc(-c2ccccc2)nc1N/N=C(\C)c1ccc(N)cc1,8.46%
6,Cc1cccc(NC(=O)Nc2cnccn2)c1,14.7%
7,CC(CCc1ccccc1)NC(=O)Cc1ccccc1 (centres unmarked),16.4%
8,O=C(CNC(=O)OCc1ccccc1)Nc1ccc(Br)cc1C(=O)c1ccccc1,0.0793%
9,Cn1c(-c2ccc(F)c(F)c2)cc2onc(-c3ccccc3)c2c1=O,-9.42%
10,COc1cc(C(=O)Nc2cccc(-n3cnnn3)c2)cc(OC)c1OC,19%
11,COC(=O)Cc1[nH]nc2c1C1(CCSCC1)C(C#N)=C(N)O2,9.38%
12,CC(C)OC(=O)c1ccc(Cn2nnc3ccccc3c2=O)cc1,1.12%
13,COc1cc2c(cc1OC)CN(C(=O)COc1ccccc1[N+](=O)[O-])CC2,9.5%
14,CCN(CC)C(=O)CSc1nc2cc(OC)c(OC)cc2c(=O)n1Cc1ccc(Cl)cc1,-1.58%
15,CCC1C(C#N)=C(N)Oc2c1c(=O)oc1ccccc21 (centres unmarked),17.8%
16,COc1ccc(-n2c(SCC(N)=O)nc3sc4c(c3c2=O)CCC4)cc1,-3.69%
17,Clc1ccc(-c2csc(N/N=C\c3cccnc3)n2)cc1,13.2%
18,CCC(c1nnc(SCC(=O)Nc2ccc(NC(C)=O)cc2)n1Cc1ccccc1)N(C)C (centres unmarked),8.82%
19,COc1ccc(CN2CCCC2C(=O)Nc2ccc(OC)c(OC)c2)cc1OC (centres unmarked),14.2%
20,Cc1onc(-c2c(Cl)cccc2Cl)c1C(=O)OCC(=O)c1ccccc1,12.8%
